The values below come from patent publication US20210355219A1.

In this test the target is C00703 huCD40::Fc (human). Kind of test: BLI (Octet); huCD40::Fc immobilized, masked protein at 100 nM in conditioned media; nm shift relative to unmasked control anti-Alb-anti-CD40. (In BLI a coated tip is dipped into the sample, and binding shifts an interference pattern.)
Chain of C00703 huCD40::Fc (human) (chain, as listed by the source limits assumed): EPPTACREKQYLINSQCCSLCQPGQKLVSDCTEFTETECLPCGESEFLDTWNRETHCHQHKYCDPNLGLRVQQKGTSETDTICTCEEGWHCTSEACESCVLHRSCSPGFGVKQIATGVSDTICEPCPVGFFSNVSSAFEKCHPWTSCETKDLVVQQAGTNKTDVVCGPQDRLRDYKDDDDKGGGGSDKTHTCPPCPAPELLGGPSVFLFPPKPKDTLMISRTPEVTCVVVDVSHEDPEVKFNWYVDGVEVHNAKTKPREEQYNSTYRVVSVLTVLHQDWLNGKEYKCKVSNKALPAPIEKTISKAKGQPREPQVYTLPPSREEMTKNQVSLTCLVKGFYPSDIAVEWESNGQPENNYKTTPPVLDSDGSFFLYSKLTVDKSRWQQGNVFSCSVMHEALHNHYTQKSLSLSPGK

B1: anti-Alb-CD-2-C06 (mask070) masked anti-CD40 protein with anti-CD40 heavy chain SEQ ID No. 73 (bispecific antibody, human IgG1, kappa)
heavy: [about 100 residues not given here]DQPLGYCTNGVCSYFDYWGQGTLVTVSS[human IgG1 constant region not given here]
light: EVQLVESGGGLVQPGNSLTLSCAASGFTFSKFGMSWVRQARAASAGQGLEWVSSISGSGRDTLYADSVKGRFTISRDNAKTTLYLQMNSLRPEDTAVYYCTIGGSLSVSSQGTLVTVSSGGGGSGGGSGGGGSGGGSDIQMTQSPSSVSASVGDRVTITCRASQGIYSWLAWYQQKPGKAPNLLIYTASTLQSGVPSRFSGSGSGTDFTLTISSLQPEDFATYYCQQANIFPLTFGGGTKVEIKRTVAAPSVFIFPPSDEQLKSGTASVVCLLNNFYPREAKVQWKVDNALQSGNSQESVTEQDSKDSTYSLSSTLTLSKADYEKHKVYACEVTHQGLSSPVTKSFNRGEC
Turning to B1, the Binding response (% of control) is 7 % of control.
